Results reported in paper PMC4336329 (PLoS ONE, 2015).
About 14,000 (4.5%) of roughly 310,000 compounds showed an effect of 50% or more. Effects have a minus sign here. The list shows a part of the results.

Target: human ether-à-go-go-related gene (hERG) potassium channel (human, UniProt Q12809)
Assay: primary screen, population patch clamp on CHO cells stably expressing hERG
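Also: peak tail current of the secondary pulse compared with the same well before compound.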

Sequence of human ether-à-go-go-related gene (hERG) potassium channel (Q12809 whole entry, looked up): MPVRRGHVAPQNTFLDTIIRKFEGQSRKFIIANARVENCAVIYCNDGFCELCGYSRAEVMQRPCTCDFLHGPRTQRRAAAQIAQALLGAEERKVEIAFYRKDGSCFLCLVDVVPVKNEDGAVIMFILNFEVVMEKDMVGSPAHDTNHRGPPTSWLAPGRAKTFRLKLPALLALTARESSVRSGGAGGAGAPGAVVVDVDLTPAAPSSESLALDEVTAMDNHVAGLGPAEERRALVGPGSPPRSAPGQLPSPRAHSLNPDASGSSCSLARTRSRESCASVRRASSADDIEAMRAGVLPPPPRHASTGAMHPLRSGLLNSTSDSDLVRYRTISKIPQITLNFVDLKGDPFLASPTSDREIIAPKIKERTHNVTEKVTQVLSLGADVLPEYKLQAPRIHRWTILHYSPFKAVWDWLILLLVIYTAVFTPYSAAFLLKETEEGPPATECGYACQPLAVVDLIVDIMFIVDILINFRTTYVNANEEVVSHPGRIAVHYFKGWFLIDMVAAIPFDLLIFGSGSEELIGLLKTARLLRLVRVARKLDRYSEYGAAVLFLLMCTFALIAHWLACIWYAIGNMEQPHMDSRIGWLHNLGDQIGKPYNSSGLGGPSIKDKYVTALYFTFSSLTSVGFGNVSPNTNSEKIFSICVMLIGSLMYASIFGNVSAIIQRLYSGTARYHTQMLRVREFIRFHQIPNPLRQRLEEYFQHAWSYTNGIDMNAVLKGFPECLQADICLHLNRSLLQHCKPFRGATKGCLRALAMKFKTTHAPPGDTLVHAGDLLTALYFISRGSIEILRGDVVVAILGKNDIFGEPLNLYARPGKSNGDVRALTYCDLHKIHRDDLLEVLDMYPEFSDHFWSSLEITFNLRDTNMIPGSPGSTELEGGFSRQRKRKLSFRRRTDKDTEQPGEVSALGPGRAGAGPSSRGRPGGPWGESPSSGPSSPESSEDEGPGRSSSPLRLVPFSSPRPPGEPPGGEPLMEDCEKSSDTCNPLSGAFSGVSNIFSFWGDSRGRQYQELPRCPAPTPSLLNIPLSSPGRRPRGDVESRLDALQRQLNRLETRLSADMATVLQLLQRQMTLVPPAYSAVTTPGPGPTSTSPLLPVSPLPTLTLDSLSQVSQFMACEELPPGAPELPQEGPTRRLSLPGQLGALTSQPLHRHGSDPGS

SMILES | hERG current change (%, negative = inhibition) at 10uM [%]
COc1ccc(C(=O)NC(=S)N(C)Cc2ccccc2)cc1Br | 8.47
CC(=O)Nc1cccc(C(=O)/C=C/c2ccc[nH]2)c1 | 2.65
CCN(CC)CCCNC(=O)c1ccc(N2CCCCC2)c(NS(=O)(=O)c2ccc(C)cc2)c1 | -69.2
COc1ccc(C(C)=O)cc1COC(=O)c1cc(C)oc1C | 2.15
O=C(Nc1ccc(S(=O)(=O)N2CCCC2)cc1)c1cccc(OC(F)F)c1 | -54.3
Cc1cc(C(=O)CSc2nnnn2C)c(C)n1CCc1ccc(F)cc1 | -0.0703
Cn1cc(Br)c(C(=O)Nc2nccs2)n1 | 10.5
CCc1ccc(OCc2nc(-c3ccccn3)no2)c(Br)c1 | -14.6
CCOC(=O)NC(N(O)c1cccc(Cl)c1)C(Cl)(Cl)Cl (stereo not shown) | -74.2
COc1ccc(NC2=CC(c3ccc(OC)c(OC)c3)N(c3ccc(OC)cc3)C2=O)cc1 (stereo not shown) | -2.31
Cc1cc(C(=O)OCC(=O)Nc2ccc(S(=O)(=O)N3CCOCC3)cc2)c(C)o1 | -10.2
COC(=O)[C@@H]1CC[C@H](C)[C@@H](c2ccc(C)cc2)N1C(=O)c1ccc(/C=N/O[C@@H](C)CN2CCCCc3nc(C)c(C)cc32)cc1 | 0.594
Cc1ccc(C2=NS(=O)(=O)N(C)C(C(=O)Nc3ccc(F)cc3F)=C2)cc1 | -17
C=CCOC(=O)C1C(=O)CC(C)(O)C(C(=O)OCC=C)C1c1ccc(OC)cc1 (stereo not shown) | 3.27
CC(C)c1ccc(/C=C/C(=O)n2nnc3ccccc32)cc1 | 15.5
CCCn1nc(C(=O)Nc2ccc(S(=O)(=O)Nc3ncccn3)cc2)c2ccccc2c1=O | 2.11
COc1ccc(C(=O)O)cc1S(=O)(=O)N1CCN(c2ccccn2)CC1 | 11.8
CCOC(=O)c1ccc(Nc2nc(C)cc(C)n2)cc1 | 16.7
O=C(CC12CC3CC(CC(C3)C1)C2)NCC(=O)N1CCCC1 | 4.32
O=C(CN1CCOCC1)N1CCN(c2ccc([N+](=O)[O-])cc2)CC1 | -71.6
CC(C)(C)c1ccc(OCC(=O)N/N=C/c2cc(Br)ccc2OC(=O)c2ccco2)cc1 | 22.4
Cc1cccc(C)c1N1C(=O)C(Cl)=C(N2CCCC2)C1=O | 15.7

SMILES | hERG current change (%, negative = inhibition) at 10uM [%]
COc1ccc(NC(=S)N(CCN2CCCCC2)Cc2ccco2)cc1 | -57.5
CCCN1CNc2c(c(=O)[nH]c(=S)n2CCc2ccc(OC)c(OC)c2)C1 | 14.5
COc1ccc(C2C(=O)N(C3CCCCC3)CC(=O)N2C2CCCCC2)cc1 (stereo not shown) | -51.7
CC1(C)CC(NC2C3CC4CC(C3)CC2C4)CC(C)(C)N1.Cl (stereo not shown) | 4.97
COc1ccc(Cl)cc1C(=O)NNC(=O)C1COc2ccccc2O1 (stereo not shown) | 12.8
O=C(c1cccc(S(=O)(=O)Nc2ccccc2Cl)c1)N1CCN(C(=O)c2ccco2)CC1 | -12.7
COc1ccc(CNC(=O)CN(c2ccc(C)cc2)S(=O)(=O)c2c(C)noc2C)cc1 | 14.5
COC(=O)C1=C(c2ccccc2OCc2ccccc2)C[C@@H]2CC[C@H]1N2C(=O)NCc1ccc(N(C)C)cc1 | 10.9
O=C(CN(C(=O)CNC(=O)c1ccco1)c1ccc(F)cc1)NC1CCCC1 | 5.2
COc1ccccc1NS(=O)(=O)c1ccc(O)c(C(=O)OCc2cccc([N+](=O)[O-])c2)c1 | -10.9
Cc1ncc([N+](=O)[O-])n1CCOc1nonc1N | 5.3
COc1ccccc1N1CC(C(=O)Nc2nnc(SCC(=O)NCC3CCCO3)s2)CC1=O (stereo not shown) | 15
COc1cc(CN2CCN(CCOCCO)CC2)cc(OC)c1OC | -9
COCCCNC(=O)CSc1nc2ccccc2c(=O)n1CCC(=O)NCCc1ccc(OC)c(OC)c1 | 9.25
CCOC(=O)Nc1sc(C(=O)N(C)C)c(C)c1C(=O)OCC | 5.73
CN1/C(=C/C=N/NC(=O)c2ccc([N+](=O)[O-])cc2)C(C)(C)c2ccccc21 | -6.88
COc1ccc(NC2=CC(c3ccc(F)cc3)N(c3ccc(OC)cc3)C2=O)cc1 (stereo not shown) | -6.76
CCCC(=O)NNc1c2ccccc2nc2ccccc12 | 9.96
CCOC(=O)C1=C(N)Oc2ccc3ccccc3c2C1c1ccc(O)cc1 (stereo not shown) | -7.78
C=CCN(CC=C)S(=O)(=O)c1ccc(NC(=S)NC(=O)/C=C/c2cccc3ccccc23)cc1 | 1.52
O=C(CSc1nnc(-c2ccc(S(=O)(=O)N3CCCC3)cc2)o1)NCc1ccco1 | -7.57
O=C(C1CCCO1)N1CCN(C(=S)Nc2ccc(F)cc2)CC1 (stereo not shown) | 9.95

SMILES | hERG current change (%, negative = inhibition) at 10uM [%]
CN(C)S(=O)(=O)c1cccc(NC(=S)Nc2ccc3cn[nH]c3c2)c1 | 4.67
Cc1ccccc1C(=O)NC(=S)NCC(=O)c1ccccc1 | 0.429
Cc1cnc(C(=O)NC2CC(C)(C)Cc3c2cnn3-c2cccc(F)c2)cn1 (stereo not shown) | -33.5
CN(CCOc1ccc(Cl)cc1)C(=O)c1ccc2c(=O)n3c(nc2c1)CCC3 | -10.3
CCOC(=O)CCc1nc2ccccc2[nH]c1=O | -18.7
COc1ccc(C(C(=O)NC2CCCC2)N(C(=O)c2csnn2)C2CC2)cc1 (stereo not shown) | -6.81
O=C(CCCSc1nc2ccccc2c(=O)[nH]1)c1ccc(F)cc1 | 3.3
CC1CCCCC1NC(=O)NC(=O)COC(=O)c1cncc(Br)c1 (stereo not shown) | -0.391
COC(=O)C1CCN(S(=O)(=O)c2ccc(Br)s2)CC1 | -11.2
CCOC(=O)c1c(SC)nc(SC)c2c1CCC2 | 2.05
CCN1C(=O)N[C@@H](c2ccco2)C(C(C)=O)=C1C | 21.6
COc1ccc(Cl)cc1NC(=O)CNC(c1ccccc1)c1ccccc1 | 12.6
Cc1ccc(NC(=O)c2c(O)c3ccccc3n(C)c2=O)nc1 | 2.32
CC(C)(C)c1nnc(NS(C)(=O)=O)s1 | 8.21
OC(COc1ccc2ccccc2c1)CN1CCN(c2ccc(F)cc2)CC1 (stereo not shown) | -28
Cc1nccn1CCC1CCCCN1C(=O)CCc1nnc(-c2ccsc2)o1 (stereo not shown) | 0.295
O=C(NC1CCCCC1)C(c1cccs1)N(C(=O)Cc1c[nH]c2ccccc12)c1ccc(F)cc1 (stereo not shown) | 14.7
NC(=O)c1nsc(C(=O)N(CC(=O)NC2CCCC2)Cc2ccc3c(c2)OCO3)c1N | -11.9
O=S(=O)(c1ccc(=S)[nH]c1)N1CCCCC1 | 32.3
COc1ccccc1CN1CC(C(=O)NCCn2ccc(C)n2)CCC1=O (stereo not shown) | 15.7
O=C(O)CC1SC(=Nc2ccccc2)N(c2ccccc2)C1=O (stereo not shown) | 16.8
COc1ccc(CN2CCNC(=O)C2CC(=O)O)c(OC)c1 (stereo not shown) | 13.7

SMILES | hERG current change (%, negative = inhibition) at 10uM [%]
N/C(Cc1ccc(Cl)cc1)=N\OC(=O)c1ccccc1 | 2.52
CC1CCCC(C)N1CCCNC(=O)CN1C(=O)c2cccnc2Oc2ccc(Cl)cc21 (stereo not shown) | 0.579
CCN(CC)C(=O)c1sc(NC(=O)Cc2cccs2)c(C#N)c1C | -6.24
COCCCNC(=O)C1CC(=O)N(c2ccc(C)cc2)C1 (stereo not shown) | 27.1
COc1ccc(/C=C(/NC(=O)c2cccs2)C(=O)NC(C)(C)C)cc1OC | 14.9
Cc1ccccc1C(=O)NNC(=O)c1cc(N)cc([N+](=O)[O-])c1 | 24.4
CCc1nnc(NC(=O)c2cccnc2SC)s1 | 4.74
COC(=O)C1C(=O)NC(SC)=C(C#N)C1c1ccccc1F (stereo not shown) | 0.0833
O=[N+]([O-])c1ccc(N(CC2CO2)S(=O)(=O)c2ccccc2)cc1 (stereo not shown) | -43.9
COc1cccc(-n2cnc3sc(C)c(C)c3c2=O)c1 | -12
COc1ccc(CC2c3cc(OC)c(OC)cc3CC[N+]2(C)CCC(=O)OCCCCCOC(=O)CC[N+]2(C)CCc3cc(OC)c(OC)cc3C2Cc2ccc(OC)c(OC)c2)cc1OC.O=S(=O)([O-])c1ccccc1 (stereo not shown) | 3.55
CC(NC(=S)Nc1c(Br)cccc1OC(F)F)C(C)(C)C (stereo not shown) | -2.39
COC(=O)c1c(N)nc(C)n1-c1ccc(OC)cc1 | 18.2
COc1ccccc1N1CCN(C(=O)CCn2c(=O)[nH]c3ccsc3c2=O)CC1 | 8.71
O=C1c2ccccc2NC(c2ccccc2O)N1O (stereo not shown) | 22.1
COc1cccc(CNS(=O)(=O)c2ccc3c(c2)N(C(C)=O)CCO3)c1 | 3.92
O=C(NCc1ccccc1)C1=C[C@H](c2ccc(C(F)(F)F)cc2)C[C@H](OCCCCO)O1 | -30.3
CC(SCc1ccccc1)C(=O)N/N=C/c1ccc(OCC(=O)NCc2ccco2)cc1 (stereo not shown) | -13
CC1CC(C)CN(CCCNC(=O)c2ccc3nc(N4CCCCC4)sc3c2)C1 (stereo not shown) | -47.5
